Measurements as given in PubChem BioAssay (NCATS).
“And” between values parts separate entries of the source, which are not always exact repeats. Identical values can stand only once. Inconclusive results, whose numbers are uncertain, are shown with a selection of clear calls. Where the call is inconclusive, the potency comes from a doubtful curve fit. The source made the active and inactive calls. The call rests on the fitted dose curve; in most records, active means well fitted cell-killing curve with a large enough effect; inconclusive means small, poorly fitted or top-dose-only effect, or effect the other way; inactive means no such curve, though single readings can be large or run the other way.

Test: Viability qHTS for spleen associated tyrosine kinase inhibitor (SYKi) naive MV4-11 cells (AID 1963823); further: nearly all actives have a fitted effect of over 40% in size
Details: MV4-11 AML viability, CellTiter-Glo luminescence, 72 h; viability (% of control): at 45 µM (top of the series)
Summary of the method: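 qHTS, SYK inhibitor-naive MV4-11; 500 cells/well; 72 hr compound exposure, 37 C; CellTiter-Glo added, 10 min RT; luminescence read.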
Potency means the concentration at half of the fitted maximal effect; tags describe the fitted curve by direction and shape.

Row | SMILES | Potency | viability (% of control)
1 | COc1ccc2cc1Oc1ccc(cc1)CC1c3cc(c(OC)cc3CCN1C)Oc1c(OC)c(OC)c(OC)c3c1C(C2)N(C)CC3 (stereo not given) | inconclusive: 7.96 µM [cytotoxic, partial curve] | –
2 | Cc1occc(=O)c1O[C@@H]1O[C@H](CO)[C@@H](O)[C@H](O)[C@H]1O | inactive | –
3 | CN[C@@H]1[C@@H](O)[C@@H](O[C@@H]2[C@@H](O)[C@H](O[C@H]3O[C@@H]([C@@H](C)NC)CC[C@H]3N)[C@@H](N)C[C@H]2N)OC[C@]1(C)O | inactive | –
4 | CC1(C)C(=O)CCC2(C)C1C(O)C=C1COC(=O)C12O (stereo not given) | inactive | –
5 | CN(C)CC1CCn2cc(c3ccccc32)C2=C(C(=O)NC2=O)c2cn(c3ccccc23)CCO1 (stereo not given) | inconclusive: 0.184 µM [cytotoxic, full curve] | –
6 | CCOc1ccc(-c2nn3ncccc3c2-c2ccc(S(C)(=O)=O)cc2)cc1 | inconclusive: 10.3 µM [cytotoxic, partial curve] | –
7 | Cn1cc(S(C)=O)c(=O)c2ccc(F)cc21 (stereo not given) | inconclusive: 16.8 µM [cytotoxic, partial curve] | –
8 | Cn1ncc(Cl)c1-c1cc(C(=O)N[C@H](CN)Cc2ccc(F)c(F)c2)sc1Cl | active: 9.2 µM and active: 5.9 µM | –
9 | CC(C)c1ccc2c(c1)CCC1[C@](C)(C(=O)O)CCC[C@]21C (stereo not given in full) | inconclusive: 16.4 µM [cytotoxic, partial curve, poor fit] | –
10 | COC(=O)C1=C2Nc3ccccc3C23CCN2CCCC(C(C)O)(C1)C23 (stereo not given) | inconclusive: 11.4 µM [cytotoxic, single point] | –
11 | O=C(CCNC(=O)c1ccc(OC(F)(F)F)cc1)N[C@@H]1CCCc2ccccc21 | inconclusive: 2.63 µM [cytotoxic, partial curve] | –
12 | CC(=O)O[C@H]1C[C@@](O)(C(C)C)[C@@H]2[C@@H](OC(=O)c3ccc(O)cc3)CC(C)=CC[C@@]12C | inconclusive: 14.2 µM [cytotoxic, single point] | –
13 | Cc1cc(CCCOc2c(C)cc(-c3noc(C(F)(F)F)n3)cc2C)on1 | inactive | –
14 | CCCC(=O)NCCc1csc(-c2ccc(Cl)cc2)n1 | inconclusive: 14.6 µM [cytotoxic, partial curve, poor fit] | –
15 | O=C(NCc1ccc(OC(F)(F)F)cc1)C1c2c(F)cccc2C(=O)N1CCc1ccccn1 (stereo not given) | inconclusive: 10.3 µM [cytotoxic, partial curve] | –
16 | CC(=O)c1c(C)cc(O)cc1O[C@@H]1O[C@H](CO)[C@@H](O)[C@H](O)[C@H]1O | inactive | –
17 | NC1(c2ccc(NC(=O)c3ccnc(-c4cc(C(=O)O)ccn4)c3)cc2)CC1 | inconclusive: 25.9 µM [cytotoxic, single point] | –
18 | CC1(c2ccccc2)OC(C(=O)O)=CC1=O (stereo not given) | inactive | –
19 | C=C1/C(=C/C=C2\CCC[C@]3(C)[C@@H]([C@H](C)CC[C@@H](O)C(C)(C)O)CC[C@@H]23)C[C@@H](O)C[C@@H]1O | inconclusive: 0.0103 µM [cytotoxic, full curve, poor fit] | –
20 | CC1=C(CO)CC(C(C)C2CCC3C4CC=C5CC(OC6OC(COC7OC(CO)C(O)C(O)C7O)C(O)C(O)C6O)CC(O)C5(C)C4CCC23C)OC1=O (stereo not given) | inconclusive: 4.85 µM [cytotoxic, single point] | –

Row | SMILES | Potency | viability (% of control)
21 | O=C(Nc1ccccc1C(=O)Nc1ccc(CCO)cc1)c1ccc([N+](=O)[O-])cc1 | inconclusive: 6.51 µM [cytotoxic, partial curve] | –
22 | CC(C)(C)C(=O)OCOC(=O)[C@@H]1N2C(=O)[C@@H](NC(=O)[C@H](N)c3ccccc3)[C@H]2SC1(C)C | inactive | –
23 | C=CC(C)(C)c1[nH]c2cc3c(cc2c1CC1NC(=O)C2=CCCN2C1=O)C=CC(C)(C)O3 (stereo not given) | inconclusive: 14.2 µM [cytotoxic, single point] | –
24 | CCNC(=O)[C@@H]1CCCN1C(=O)[C@H](CCCN=C(N)N)NC(=O)[C@H](CC(C)C)NC(=O)[C@@H](C)NC(=O)[C@H](Cc1ccc(O)cc1)NC(=O)[C@H](CO)NC(=O)[C@H](Cc1c[nH]c2ccccc12)NC(=O)[C@H](Cc1cnc[nH]1)NC(=O)[C@@H]1CCC(=O)N1 | inactive | –
25 | C=C(C)[C@@H](C)[C@H]1O[C@]23C[C@]4(CO2)C(CCC2[C@@]5(C)CC[C@H](O[C@@H]6OC[C@H](O)[C@H](O[C@@H]7O[C@H](CO)[C@@H](O)[C@H](O)[C@H]7O)[C@H]6O[C@@H]6O[C@@H](CO)[C@H](O)[C@H]6O)C(C)(C)C5CC[C@]24C)C3[C@@](C)(O)[C@@H]1OC(C)=O (stereo not given in full) | – | inactive: 73.4% [at 9.25 µM]
26 | COc1cc2c(cc1O)CC[C@H]1[C@@H]2CC[C@]2(C)[C@H](O)CC[C@@H]12 | active: 0.58 µM | –
27 | C=C(CCC1C(C)(O)CCC2C(C)(C)C(O)CCC12C)C(O)CO (stereo not given) | inconclusive: 2.27 µM [cytotoxic, full curve, poor fit] | –
28 | C=C1C(O)CC2C(C(=O)O)=COC(O[C@@H]3O[C@H](COC(=O)c4ccc(O)cc4)[C@@H](O)[C@H](O)[C@H]3O)C12 (stereo not given in full) | inactive | –
29 | O=c1[nH]ccc2nc(-c3ccc(CN4CCC(c5nc(-c6ccccn6)n[nH]5)CC4)cc3)c(-c3ccccc3)cc12 | inconclusive: 5.17 µM [cytotoxic, partial curve] | –
30 | CC1(C)CC[C@]2(C(=O)O[C@@H]3O[C@H](CO)[C@@H](O)[C@H](O)[C@H]3O)CC[C@]3(C)C(=CCC4[C@@]5(C)CC[C@H](O[C@H]6O[C@H](CO)[C@@H](O)[C@H](O[C@@H]7O[C@H](CO)[C@@H](O)[C@H](O)[C@H]7O)[C@H]6O)C(C)(C)C5CC[C@]43C)[C@@H]2C1 (stereo not given in full) | – | inactive: 84% [at 9.25 µM]
31 | CCCCN(CC)c1nc(C)nc2c1c(C)cn2-c1c(C)cc(C)cc1C | inconclusive: 18.4 µM [cytotoxic, single point] | –
32 | CC1=CC2(O)/C=C/C(C)(O)CC(O)/C=C/C(=O)OC23C(=O)NC(CC(C)C)C3C1C (stereo not given) | inconclusive: 1.12 µM [cytotoxic, partial curve, poor fit] | –
33 | C[C@@H]1C(=O)O[C@H]2[C@H]1CC[C@@]1(C)C(=O)C=C[C@](C)(O)[C@H]21 | inconclusive: 20.6 µM [cytotoxic, single point] | –
34 | CO[C@H]1C[C@@H]2CC[C@@H](C)[C@@](O)(O2)C(=O)C(=O)N2CCCC[C@H]2C(=O)O[C@H]([C@@H](C)C[C@@H]2CC[C@@H](O)[C@H](OC)C2)CC(=O)[C@H](C)/C=C(\C)[C@@H](O)[C@@H](OC)C(=O)[C@H](C)C[C@H](C)/C=C/C=C/C=C/1C | inconclusive: 16.4 µM [cytotoxic, partial curve, poor fit] | –
35 | CO[C@@H]1[C@H](O)CCC2(CO2)[C@H]1[C@@]1(C)O[C@@H]1CC=C(C)C (stereo not given in full) | inconclusive: 13 µM [cytotoxic, partial curve] | –
36 | Oc1c(Cl)cc(Cl)c(Cl)c1Cc1c(O)c(Cl)cc(Cl)c1Cl | active: 8.41 µM | –
37 | COc1ccnc2[nH]cc(C(=O)C(=O)N3CCN(C(=O)c4ccccc4)CC3C)c12 (stereo not given) | inactive | –
38 | C[C@H](CN1CCCC1)C(=O)c1ccc(C(F)(F)F)cc1 | inconclusive: 2.66 µM [cytotoxic, partial curve, poor fit] | –
39 | COc1cc(/C=C/C(=O)O[C@H]2[C@H](OC(=O)/C=C/c3cc(OC)c(O)c(OC)c3)O[C@H](CO[C@@H]3O[C@H](CO)[C@@H](O)[C@H](O)[C@H]3O)[C@@H](O)[C@@H]2O)ccc1O | inactive | –
40 | Cc1cc(OCCCS(C)(=O)=O)cc(C)c1-c1cccc(COc2ccc3c(c2)OCC3CC(=O)O)c1 (stereo not given) | inconclusive: 13 µM [cytotoxic, partial curve, poor fit] | –
